# Experimental data published in PMC4336329 (PLoS ONE, 2015).
# Among all 310,000 compounds or so, about 14,000 (4.5%) showed an effect of 50% or more. The effect is printed as a negative number. This is one part of the list.
# Target: human ether-à-go-go-related gene (hERG) potassium channel (human, UniProt Q12809)
# Assay: primary screen, population patch clamp on CHO cells stably expressing hERG
# 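Also: peak tail current of the secondary pulse compared with the same well before compound.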
# human ether-à-go-go-related gene (hERG) potassium channel, sequence (Q12809 whole entry, looked up): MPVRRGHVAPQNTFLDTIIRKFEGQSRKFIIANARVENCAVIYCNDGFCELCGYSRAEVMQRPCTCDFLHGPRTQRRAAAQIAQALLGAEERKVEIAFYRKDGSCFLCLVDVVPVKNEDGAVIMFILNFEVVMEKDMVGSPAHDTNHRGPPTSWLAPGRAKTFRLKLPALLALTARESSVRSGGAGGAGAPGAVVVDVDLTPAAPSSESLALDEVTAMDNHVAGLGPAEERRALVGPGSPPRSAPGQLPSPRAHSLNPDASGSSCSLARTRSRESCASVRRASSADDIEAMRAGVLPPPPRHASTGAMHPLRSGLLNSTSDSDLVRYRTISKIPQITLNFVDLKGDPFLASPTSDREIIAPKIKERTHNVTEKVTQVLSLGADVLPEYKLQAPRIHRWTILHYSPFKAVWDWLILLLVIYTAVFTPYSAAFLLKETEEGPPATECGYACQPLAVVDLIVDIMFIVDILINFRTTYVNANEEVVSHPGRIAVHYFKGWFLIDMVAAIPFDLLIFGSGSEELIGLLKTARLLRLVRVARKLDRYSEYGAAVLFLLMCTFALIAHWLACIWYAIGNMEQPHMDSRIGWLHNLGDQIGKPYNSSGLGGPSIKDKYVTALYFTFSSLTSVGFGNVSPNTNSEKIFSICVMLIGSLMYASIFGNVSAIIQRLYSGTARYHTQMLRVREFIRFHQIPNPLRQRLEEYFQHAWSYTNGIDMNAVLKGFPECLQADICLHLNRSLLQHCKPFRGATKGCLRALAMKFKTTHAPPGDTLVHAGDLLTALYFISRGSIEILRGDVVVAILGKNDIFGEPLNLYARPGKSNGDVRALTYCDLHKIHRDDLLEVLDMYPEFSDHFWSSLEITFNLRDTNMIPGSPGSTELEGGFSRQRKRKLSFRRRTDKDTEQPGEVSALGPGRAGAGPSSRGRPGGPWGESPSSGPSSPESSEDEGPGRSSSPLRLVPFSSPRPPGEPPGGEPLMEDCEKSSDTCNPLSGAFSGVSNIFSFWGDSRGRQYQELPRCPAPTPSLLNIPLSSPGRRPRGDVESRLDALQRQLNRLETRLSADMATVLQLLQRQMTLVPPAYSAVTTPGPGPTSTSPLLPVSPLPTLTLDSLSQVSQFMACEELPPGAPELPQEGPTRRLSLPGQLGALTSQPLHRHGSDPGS
row,Structure (SMILES),"hERG current change (%, negative = inhibition) at 10uM [%]"
1,COc1cccc(OC)c1OCCCOc1ccc(C)cc1Br,5.66
2,Cc1cccc(N(C(=O)c2ccc(CN3CCOCC3)o2)C(C(=O)NC(C)(C)C)c2ccc(F)cc2)c1 (stereo not drawn),6.16
3,CCOc1ccc(CCNC(=O)COC(=O)Cn2cnc3ccccc3c2=O)cc1OCC,5.55
4,CC(=O)Nc1cccc(/C(C)=N/NC(=O)c2cccs2)c1,-6.19
5,C/C(=N\Nc1nc2ccccc2[nH]1)c1ccc2c(c1)OCO2,-35.6
6,Cn1c(NCc2cccnc2)nc2c1c(=O)n(Cc1ccccc1F)c(=O)n2C,-13.6
7,CC(=O)N1CCN(Cc2nc3cc(NC(=O)COc4ccccc4)ccc3n2C)CC1.Cl,0.239
8,CCC(Sc1nc2c(cnn2-c2ccccc2)c(=O)[nH]1)C(=O)OC (stereo not drawn),-7.46
9,O=C(COC(=O)c1n[nH]c(=O)c2ccccc12)c1ccccc1,16.3
10,O=C(CN1C(=O)C2C3C=CC(C3)C2C1=O)Nc1nc(SCc2ccc(Cl)cc2)n[nH]1 (stereo not drawn),-19.8
11,Nc1nc(NCC(=O)O)nc(NCc2ccccc2)c1[N+](=O)[O-],14.3
12,N#Cc1nccnc1S(=O)(=O)c1cccs1,-2.55
13,Cc1cc(NC(=O)CCC(=O)N(Cc2ccco2)C(C(=O)NC2CCCCC2)c2ccccc2)no1 (stereo not drawn),3.41
14,O=C(COC(=O)/C=C/c1ccco1)NCc1ccco1,7.92
15,NC(=O)[C@@H]1CCCN1Cc1nc(Cc2ccccc2F)no1,7.29
16,Cc1ccc(C)c(NC(=O)CN(C)C(=O)c2cccc(-n3cccc3)c2)c1,-22.2
17,Cc1ccc(N)c(N)c1,6.61
18,C=CCNC(=S)N1CCC(C(=O)c2ccc(OC)cc2)CC1,-33.1
19,COC(=O)C1=CN(Cc2ccc(F)cc2)C=C(C(=O)OC)C1c1ccc(O)c(OC)c1,-11.6

row,Structure (SMILES),"hERG current change (%, negative = inhibition) at 10uM [%]"
1,Cc1ccc(NC(=S)N2CCC(NC(=O)c3cccc(F)c3)CC2)cc1,-24.9
2,OCCC1CN(Cc2cccc(-c3ccco3)c2)CCN1Cc1ccsc1 (stereo not drawn),-71.6
3,COc1cc2c(cc1OC)[C@H](C)N(C(=O)CSc1nc(O)c(C(C)C)c(=O)[nH]1)CC2,-2.51
4,CCC[N+](CC#Cc1ccccc1)(CCC)CC(=O)c1ccc(Cl)cc1,-67.4
5,Cc1ccc(N2CC(C(=O)NNC(=O)c3ccc(F)cc3)CC2=O)cc1 (stereo not drawn),-14.6
6,COc1cc(C)c(C(N)=O)c(OC)n1,11
7,N#CC1=C2N=C(N)c3c(sc4c3CCCCC4)N2C2=C(C(=O)CCC2)C1c1ccccc1 (stereo not drawn),-4.76
8,CNC(=S)N(CCc1c(C)[nH]c2ccc(Cl)cc12)Cc1cc(OC)c(OC)c(OC)c1,-2.11
9,CN1CCCN(C(=O)COc2ccc(F)cc2F)CC1,-3.55
10,CCCCc1ccc(NC(=O)c2cnccn2)cc1,-11.1
11,CC(CCc1ccccc1)NC(=O)c1ccc(-n2cncn2)c([N+](=O)[O-])c1 (stereo not drawn),-70.9
12,CSc1nnc([C@H](Cc2c[nH]c3ccccc23)NC(=O)OC(C)(C)C)o1,7.65
13,COc1cccc(NC(=S)N(C)C2CCN(C)CC2)c1,11
14,CCCCNC(=O)CNC(=S)N(Cc1ccccc1)Cc1cccs1,-42.9
15,CCc1ccc(C(=O)Cn2ncc(Cl)c(Cl)c2=O)cc1,10.7
16,Clc1ncc2[nH]cnc2n1,13.8
17,COC(=O)[C@H](Cc1c[nH]c2ccccc12)NC(=O)Cc1c[nH]c2ccccc12,7.82
18,Cn1c(CN2CCCC(C(=O)c3ccc4c(c3)OCO4)C2)nc2ccccc21 (stereo not drawn),-70.5
19,FC(F)(F)c1cccc(N2CCN(c3nnnn3-c3ccccc3)CC2)c1,-25.3

row,Structure (SMILES),"hERG current change (%, negative = inhibition) at 10uM [%]"
1,CCP(=S)(CC)c1ccc(N(C)C)cc1,14.8
2,C/C(=N\NC(=O)C1CC1)c1cccnc1,1.73
3,C=C(C)[C@@H]1CCC2(C(=O)O)CC[C@]3(C)[C@H](CC[C@@H]4[C@@]5(C)CCC(=O)C(C)(C)[C@@H]5CC[C@]43C)[C@@H]12 (stereo partly drawn),14.4
4,O=C(Cc1ccccc1F)Nc1nc(-c2cccs2)cs1,-19.7
5,OCC1(CCOc2ccccc2)CCN(Cc2cc(Cl)ccc2O)CC1,-24.7
6,COC(=O)c1ccccc1NC(=O)c1cnn2c(C(F)F)cc(C3CC3)nc12,15.5
7,NS(=O)(=O)c1ccc(Sc2ccc3c(c2)CCC3)nc1,16.5
8,O=C(C1CCCN(c2ncnc3c2nc2n3CCCCC2)C1)N1CCN(c2ccccc2)CC1 (stereo not drawn),-74
9,Cc1nc(NC(=O)c2ccccc2)sc1-c1csc(Nc2cccc(F)c2)n1,10.6
10,CC1C=CC(C)C(C(=O)O)C1C(=O)O (stereo not drawn),21.2
11,COc1cccc(NC=C2C(=O)OC(C)(C)OC2=O)c1,-16.3
12,O=C(c1ccco1)N1CCN(Cc2c(F)cccc2Cl)CC1,-9.87
13,O=C(c1ccccc1)N(Cc1ccccc1)Cc1ccccc1,-19.7
14,COc1cc(NS(=O)(=O)c2ccc(N/C=C\C(=O)c3ccc(OC)c(OC)c3)cc2)nc(OC)n1,3.72
15,CCN(CC)S(=O)(=O)c1ccc2c(c1)nc(SCC(=O)N(C)C1CCS(=O)(=O)C1)n2CC (stereo not drawn),6.94
16,CCOc1ccc(-c2nnc(-c3ccccc3)n2-c2ccccc2)cc1,-18.8
17,S=C(NCCSCc1ccc(Cl)c(Cl)c1)Nc1ccccc1,16.9
18,COC(=O)c1c(C#N)c(N)nc2c1CCC2,18.2
19,O=C(CSc1nnnn1-c1ccc2c(c1)OCCO2)N1CCN(C(=O)c2ccco2)CC1,-16.6
